Toxic doses and inconclusive results are not listed. Not every entry of the source has a single result; some have several. This is not the full list of results. There may be further records. Results that share an entry are repeated measurements across runs, samples, wells, individuals or studies.

For seven molecules, T/C results are on record in PubChem BioAssay AID276 (DTP/NCI, 2004).

The subject of the assay is B6C3F1 mice, Lewis lung carcinoma iv, survival T/C. The assay can be described thus: NCI In Vivo Anticancer Drug Screen. Data for tumor model Lewis Lung Carcinoma (intravenous) in B6C3F1 mice. The following applies: endpoint: median survival time, higher = longer survival. As to the method:
The antitumor activity of compounds was measured in mice bearing transplantable tumors. Survival or tumor size were measured and the results are expressed as the measurement made in the treated group (T) divided by the measurement made in the vehicle treated control group (C). The tumor model used in this assay is Lewis Lung Carcinoma (intravenous) in B6C3F1 mice

On to `NC(=O)c1c[se]c(C2OC(CO)C(O)C2O)n1` (stereo not drawn), for which the T/C (dose: 50.0 mg/kg/injection, schedule: Q01DX009 (ip), vehicle: water) is 94 % of control and 355 % of control.

As to `C#C[C@]1(O)CC[C@H]2[C@@H]3CCc4cc(O)ccc4[C@H]3CC[C@@]21C`, the T/C (dose: 200.0 mg/kg/injection, schedule: Q01DX009 (ip), vehicle: Klucel (hydroxypropylcellulose) (HPC)) was 105 % of control and 154 % of control. For `O=NN(CCCl)C(=O)NC1CCCCC1`, the T/C (dose: 4.0 mg/kg/injection, schedule: Q01DX009 (ip), vehicle: Klucel (hydroxypropylcellulose) (HPC)) is 103 % of control, 155 % of control, 158 % of control; the T/C (dose: 16.0 mg/kg/injection, schedule: Q01DX009 (ip), vehicle: Klucel (hydroxypropylcellulose) (HPC)) is 102 % of control and 151 % of control. With `O=NN(CCCl)C(=O)NC1[C@H](O)CCC[C@@H]1O` (stereo partly drawn), the T/C (dose: 2.5 mg/kg/injection, schedule: Q01DX009 (ip), vehicle: saline) is 118 % of control and 156 % of control. Regarding `CC1=NNC(=O)C1CCO` (stereo not drawn), for the setting “dose: 100.0 mg/kg/injection, schedule: Q01DX009 (ip), vehicle: Klucel (hydroxypropylcellulose) (HPC)”, the T/C is 89 % of control and 292 % of control. Regarding `CNC(=O)c1cccc2c(Nc3ccc(NS(C)(=O)=O)cc3OC)c3cccc(C)c3nc12`, under “dose: 25.0 mg/kg/injection, schedule: Q04DX003 (ip), vehicle: saline + alcohol”, the T/C is 87 % of control and 294 % of control.

As for `O=P1(N(CCCl)CCCl)NCCCO1` (stereo not drawn), for the setting “dose: 200.0 mg/kg/injection, schedule: Q01DX001 (ip), vehicle: saline”, the T/C was 98 % of control, 190 % of control, 312 % of control.
